Test results from PubChem BioAssay AID1347073 (National Center for Advancing Translational Sciences (NCATS), 2019).
In all, about 45,000 compounds went through this assay and about 200 (0.44%) were called active. Not shown: some 7% with an inconclusive outcome. The call rests on the fitted dose curve; in most records, active means well fitted activation curve with a large enough effect; inconclusive means small, poorly fitted or top-dose-only effect; inactive means no such curve, though single readings can be large or run the other way. The list shows a part of the results.

test: qHTS of TDP-43 Inhibitors: NCGC Sytravon Library Screen; details: yeast TDP-43 toxicity rescue, BacTiter-Glo growth, 24 h; series mostly up to 46.1 µM; growth rescue (activation): at the top concentration; further: 0% is about no effect; nearly all actives have a fitted effect of over 55% in size
Procedure, shortened: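 TDP-43-expressing yeast, pregrown in raffinose, seeded at OD600 0.02 in galactose medium with compound for 24 hr at 30 deg C. Growth read by BacTiter-Glo luminescence, so rescue of toxicity appears as activation.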

SMILES | growth rescue (activation)
O=C(O)c1ccc(NCc2nc3ccccc3n2CCOc2ccccc2Cl)cc1 | inactive: 12.6%
COCCNC(=O)c1ccc(S(=O)(=O)N2CCCc3ccccc32)cc1 | inactive: 19.5%
CCCCn1c(N)c(N(C)C(=O)c2cc3c(F)cccc3s2)c(=O)[nH]c1=O | inactive: 30.2%
C/C(=N\NC(=O)CNC(=O)c1ccccc1Br)c1ccco1 | inactive: 15.7%
CC(=O)N1CCC(N(CCN2CCOCC2)C(=S)Nc2c(C)cccc2C)CC1 | inactive: 22%
Cc1ncc(CN2CCN(C(C)C)C(CCO)C2)s1 (stereo not drawn) | inactive: 4.16%
CC(=O)OCC(=O)Nc1ccc(SC(F)F)cc1 | inactive: 4.64%
CC(C)CC1(C)NC(=O)N(Cc2cc([N+](=O)[O-])cc3c2OCOC3)C1=O (stereo not drawn) | inactive: 14.5%
CNC(=O)C1=C(C)NC(=S)NC1c1cccs1 (stereo not drawn) | inactive: 5.69%
O=C(c1cccs1)N1CCC2(O)CCCCC2C1c1ccc(F)cc1 (stereo not drawn) | inactive: 11.8%
CC(C)(O)C#Cc1ccc(C(=O)NCc2ccccc2F)cc1 | inactive: -11.4%
O=C(NC1CCN(C(=S)NCCc2ccccc2)CC1)C1CC1 | inactive: 5.4%
Cn1nnnc1SCC(=O)Nc1ccc(C(=O)N2CCN(Cc3ccccc3F)CC2)cc1 | inactive: 15.7%
Cc1c(CCOC(=O)c2ccc(N3CCOCC3)c([N+](=O)[O-])c2)sc[n+]1CC#N | inactive: 9.95%
Cc1cc(Cl)ccc1NC(=S)N1CCOCC1 | inactive: -5.34%
CC(C)N(Cc1ccccc1)C(=O)COC(=O)C1CCCCC1 | inactive: 26.6%
O=C(O)C1CCCCC1C(=O)Nc1ccc2c(c1)OCO2 (stereo not drawn) | inactive: 8.07%
CCOC(=O)c1ccc(NC(=S)Nc2ccc3[nH]c(=O)[nH]c3c2)cc1 | inactive: 31.4%
N#Cc1ccccc1S(=O)(=O)N1CCN(C(=O)C2CCCC2)CC1 | inactive: 3.84%
Cc1ccc(NC(=O)Cn2c(=O)cnc3ccccc32)cc1S(=O)(=O)N(C)C | inactive: 12.3%
COc1ccc(OC)c(S(=O)(=O)N2Cc3ccccc3CC2C(=O)Nc2ccc(C)cc2C)c1 (stereo not drawn) | inactive: 25.3%
CC(C)C(=O)N1CCCC1(C)C(=O)Nc1ccc(F)cc1 (stereo not drawn) | inactive: -7%

SMILES | growth rescue (activation)
COc1cc(NC(=O)CN2CCCCC2)c(C)cc1[N+](=O)[O-] | inactive: -0.833%
CN(Cc1ccccc1)C(=S)NC(=O)c1ccccc1 | inactive: -7.13%
CN(CC(=O)Nc1ccc(N2CCOCC2)cc1)C(=O)c1ccc(CS(C)(=O)=O)cc1 | inactive: -33.3%
O=c1cccccc1NN=C1CCCCC1 | inactive: -11.5%
CCC(=O)Nc1ccc(C(=O)c2ccccc2)cc1 | inactive: 17.4%
CCOc1ccc(N(Cc2ccccc2)C(=O)c2nc(SCC)ncc2Cl)cc1 | inactive: -8.17%
CC(=O)Nc1cccc(-c2ccnc3c2CC(C)(C(=O)Nc2cccc(OC(F)(F)F)c2)O3)c1 (stereo not drawn) | inactive: 15.6%
COC(=O)c1ccccc1NC(=S)NC(=O)COc1ccc(C(C)C)cc1 | inactive: -6.43%
Cc1ccccc1C(=O)NC(=S)NCCN1CCOCC1 | inactive: 12.4%
Cc1ccc(N2C(=S)SC3CS(=O)(=O)CC32)cc1 (stereo not drawn) | inactive: 5.11%
COc1cc(/C=C/c2cccc[n+]2C)ccc1OCC(=O)Nc1ccccc1C | inactive: -0.124%
CN1CCC(=NNC(=O)C(=O)Nc2ccccc2F)CC1 | inactive: -8.15%
COc1ccc(CC(N)c2csc(NC(=O)c3ccc(F)cc3)n2)cc1 (stereo not drawn) | inactive: 9.67%
Cc1cc(C)nc(N/N=C/c2c(C)oc3ccccc23)n1 | inactive: 13.5%
O=C(CCNc1ccc(Cl)cc1)c1cccs1 | inactive: 7.53%
CCNS(=O)(=O)c1ccc(C(=O)OCc2cc(=O)oc3cc(OC)ccc23)cc1 | inactive: 1.84%
Cc1ccc(C(=O)N2CCCC2)cc1S(=O)(=O)Nc1cccc(C)c1C | inactive: -1.92%
c1coc(-c2ccnc(-n3cccc3)n2)c1 | inactive: 5.84%
COc1ccc(OC)c(S(=O)(=O)N2CCCC(C(=O)N3CCC(C(N)=O)CC3)C2)c1 (stereo not drawn) | inactive: 24.6%
COc1ccc(OC2C(=O)N(c3cc(C)ccc3C)C2c2ccc(OC)c(OC)c2)cc1 (stereo not drawn) | inactive: 27.9%
Oc1nc(-c2ccc(Cl)cc2)n2ccncc12 | inactive: -2.25%
Cc1nc2ccc(N=NC3=C(O)CC(C)(C)CC3=O)cc2s1 | inactive: 18.3%

SMILES | growth rescue (activation)
Cc1ccc(N2CC(C(=O)N3CCOCC3)CC2=O)cc1Cl (stereo not drawn) | inactive: 0.531%
O=C(Nc1ccc(Cl)cc1)c1ccc2sc([C@@H]3O[C@H](CO)[C@H](O)[C@H](O)[C@H]3O)nc2c1 | inactive: 9.09%
Cc1csc(NC(=O)c2ccc(C)o2)n1 | inactive: 11.8%
C[C@@H](C(=O)Nc1ccc(SC(F)F)cc1)N1C(=O)C2CCCCC2C1=O (stereo partly drawn) | inactive: 4.92%
CNC(=O)c1oc(-c2ccccc2)nc1C | inactive: 8.14%
CCOC(=O)Cn1c(C)[n+](CC(=O)c2ccccc2)c2ccccc21 | inactive: -7.46%
CCOC(=O)C1CCN(C(=O)C2CCCN2S(=O)(=O)c2ccc(Cl)cc2)CC1 (stereo not drawn) | inactive: -3.82%
N#C/C(=C\c1ccccc1Cl)C(=O)Nc1ccccn1 | inactive: 7.55%
COCCNC(=O)CN(C(=O)c1ccc(N2CCCC2)nc1)c1ccc(F)c(Cl)c1 | inactive: 14.6%
C[C@H](NC(=O)CCCn1nnc2ccccc2c1=O)C(=O)O | inactive: -2.79%
COc1ccc(-c2nnc(-c3ccc(C)cc3)o2)cc1 | inactive: 20.3%
COc1ccccc1OCc1nnc(-c2ccccc2)o1 | inactive: 14.7%
COc1cccc(/C=N/NC(=O)C[n+]2ccccc2)c1OC | inactive: -3.07%
COC(=O)c1sc(N/N=C/c2ccc(C(C)C)cc2)nc1C | inactive: 10.4%
O=C(O)Cc1ccc(NC(=O)c2cnccn2)cc1 | inactive: 8.01%
CCCc1nnc(SCC(=O)NC2CC2)n1CC | inactive: 3.79%
O=C(O)C1C2CCC(O2)C1C(=O)NCc1ccccc1Br (stereo not drawn) | inactive: -0.981%
Cc1cc(C)cc(N(CCC#N)C(=O)CSc2nc3ccccc3c(=O)[nH]2)c1 | inactive: -4.84%
COc1cccc(/C=N/NC(=S)Nc2cccnc2)c1 | inactive: 34%
N=c1c(S(=O)(=O)c2ccccc2)cc2c(=O)n3ccccc3nc2n1CCCN1CCOCC1 | inactive: 15.5%
N#CCCN(NC1=NS(=O)(=O)c2ccccc21)C(=O)c1ccccc1Br | inactive: -17.2%
Cc1[nH]c2ccccc2c1/C=N/NC(=O)c1cccc(S(=O)(=O)Nc2ccccc2Cl)c1 | inactive: 2.09%

SMILES | growth rescue (activation)
COc1ccc(C(=O)OCC(=O)NCc2ccc3c(c2)OCO3)cc1[N+](=O)[O-] | inactive: 22%
CCn1c(CC(=O)Nc2ccccc2OC)nnc1SCC(=O)Nc1ccccc1F | inactive: 9.18%
C=CCc1c(C)nc(-c2ccccc2)nc1Nc1ccccc1O | inactive: 20.8%
Cc1cc(C)nc(N/N=C/c2cccc([N+](=O)[O-])c2)n1 | inactive: 21%
O=C(Cc1cnc2ncnn2c1)N1CCc2c([nH]c3ccccc23)C1c1ccccc1F (stereo not drawn) | inactive: 7.91%
COc1ccccc1C(=O)NCC(=O)OCC(=O)NNC(=O)c1ccc(Br)cc1 | inactive: -1.33%
COc1ccc(CCn2c(-c3ccc(Cl)cc3)n[nH]c2=S)cc1OC | inactive: 11.9%
CCCCN(CC)CCCNC(=O)CN1C(=O)CSc2ccc(S(=O)(=O)N3CCOCC3)cc21 | inactive: 8.65%
Cn1c(=O)[nH]c(=O)c2c1nc(Sc1nc3ccccc3s1)n2Cc1ccccc1 | inactive: 16.5%
CC(C)C(=O)OC1CCS(=O)(=O)c2sccc21 (stereo not drawn) | inactive: 9.27%
Cc1cccc(-n2c(C)c(C)c3c(N)ncnc32)c1 | inactive: 3.8%
Cc1cc(C)nc(N2CCN(C(=O)CCC(=O)Nc3nnc(CC(C)C)s3)CC2)n1 | inactive: 2.96%
Cc1ccc(C(=O)Nc2ccc3ncccc3c2)cc1 | inactive: -21.9%
CC1CCCCC12NC(=O)N(CC(=O)OCc1ccccc1Cl)C2=O (stereo not drawn) | inactive: 12.3%
C=CCNC(=S)Nc1ccc2cn[nH]c2c1 | inactive: 23.3%
Cn1ncc(Br)c1C(=O)NC1CCCCC1 | inactive: 5.1%
O=C(COC(=O)COc1ccccc1)Nc1ccc(Br)cc1Br | inactive: 17.1%
OC[C@@H]1CN(Cc2ccc(Cl)cc2)C[C@H](n2cnc3c(NCc4ccco4)ncnc32)O1 | inactive: -2.55%
CCC(C)(C)C1CCc2nc3ccccc3c(C(=O)OC(C)C(=O)Nc3c(C)n(C)n(-c4ccccc4)c3=O)c2C1 (stereo not drawn) | inactive: 12.6%
CCN(CC)S(=O)(=O)c1ccc(O)c(NS(=O)(=O)c2ccccc2F)c1 | inactive: 2.35%
O=C(O)CCCn1cc(NC(=O)c2ccco2)cn1 | inactive: -11.4%
CC(=O)c1ccc(NC(=S)NNC(=O)c2ccncc2)cc1 | inactive: 10.9%

SMILES | growth rescue (activation)
COc1cc(NC(=O)C2CC(c3c(F)cccc3Cl)=NO2)cc(OC)c1OC (stereo not drawn) | inactive: 18.2%
O=C(CNc1ccc(F)cc1)N/N=C/C1CC=CCC1 (stereo not drawn) | inactive: 8.41%
CN(C)C(=O)c1cn(-c2ccccc2)nc1-c1cc2ccccc2o1 | inactive: 22.7%
COc1ccc(CCNC(=O)Cn2cnc3ccccc3c2=O)cc1OC | inactive: -14.6%
Cn1c(=O)c2c(ncn2CC(=O)OCC(=O)Nc2ccc(F)cc2Cl)n(C)c1=O | inactive: 5.4%
CC[C@H](C)[C@H](NC(N)=O)C(=O)OCC(=O)NCc1ccc(Cl)cc1 | inactive: -7.13%
Cc1cc(C)c(S(=O)(=O)/N=C2\C=C(Nc3ccc(C(=O)O)cc3)C(=O)c3ccccc32)c(C)c1 | inactive: 5.38%
COc1ccc(CNC(=O)Cc2ccc(-c3ccccc3)cc2)cc1OC | inactive: 22.6%
Cc1cc(NC(=O)COC(=O)C2CC(=O)N(c3cccc(Cl)c3)C2)no1 (stereo not drawn) | inactive: 11.4%
[N-]=C=C1C(=S)NC(=O)[C@H]([n+]2ccccc2)[C@H]1c1ccc(Cl)cc1 | inactive: -0.902%
CCCNC(=O)C1(C)CCN(C(=O)c2cc(C(C)(C)C)nn2C)C1 (stereo not drawn) | inactive: -14.9%
O=C(c1cccs1)N1CCC(c2nc3c(nnn3Cc3ccccc3Cl)c(=O)[nH]2)CC1 | inactive: 16.9%
O=C(NCC1CCCCC1)c1ccc2nc([C@@H]3O[C@H](CO)[C@H](O)[C@H](O)[C@H]3O)[nH]c2c1 | inactive: 2.97%
CCOc1ccc(C(C(=O)NCC2CCCO2)N(Cc2ccccc2)C(=O)c2snc(C(N)=O)c2N)cc1 (stereo not drawn) | inactive: -3.85%
Cc1csc(NC(=O)c2ccc(S(=O)(=O)N3CCN(C)CC3)cc2)n1 | inactive: -7.08%
CCOC(=O)Cn1nnnc1CN1CCN(c2ccc(OC)cc2)CC1 | inactive: 1.45%
C=CCn1c(SCC(=O)NCCOC)nnc1-c1cc2c(s1)CCC(CC)C2 (stereo not drawn) | inactive: 6.25%
COc1cccc2c1O/C(=N\O)C(C(=O)Nc1cccc(C)c1C)C2 (stereo not drawn) | inactive: 15.8%
O=C(NC1CCCC1)C1CCCN1C(=O)Nc1ccccc1Cl (stereo not drawn) | inactive: 10.1%
NC(=O)c1nsc(C(=O)N(CC(=O)NC2CCCC2)c2cccc(C(F)(F)F)c2)c1N | inactive: -5.9%
